Results: PubChem BioAssay AID1963576 (National Center for Advancing Translational Sciences (NCATS), 2024)
Out of some 46,000 compounds screened, about 60 (0.1%) were called active. Inconclusive results (about 3%) are left out. Calls come from the whole dose curve; as a rule, active = well fitted inhibition curve with a large enough effect; inconclusive = small, poorly fitted or top-dose-only effect; inactive = no such curve, though single readings can be large or run the other way. This is one part of the list.

Assay: Primary qHTS assay for Inhibitors of ovarian cancer metastasis using an organotypic tumor microenvironment (TME) model.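 For activity change, negative = inhibition: plate controls were DMSO wells for no effect and tomatine positive control wells for full effect.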 Note: nearly all actives have a fitted effect of over 65% in size.
Details: SKOV3ip1-GFP adhesion/invasion on 3D omental model, fluorescence; series mostly up to 45.8 µM; activity change, negative = inhibition: at the top concentration
Summary of the method: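 Primary human omental fibroblast/mesothelial 3D culture pre-formed 48 h. SKOV3ip1-GFP cells added with compounds (0.36-46 umol/L), incubated 2 h RT/16 h 37 C, fixed; GFP cells quantified at 488/509 nm.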

Activity change, negative = inhibition, inactive:
Cc1ccc(Cn2c(=O)n(CCCCC(=O)NCCc3ccc(Cl)cc3)c(=O)c3ccccc32)cc1 19.4%
COc1ccc(S(=O)(=O)N2CCN(c3ccc(F)cc3)CC2)cc1-c1noc(C)n1 -11.6%
CCc1nnc2c(Nc3ccc(Br)c(C)c3)nc3ccccc3n12 0.28%
O=C(NCc1ccccc1)c1cc(-c2cccc(Cl)c2)on1 -1.01%
CC1CCc2c(sc3nnn(Cc4ccc(F)cc4)c(=O)c23)C1 (stereo unspecified) 6.05%
Cn1c(=O)c2c(n3c4ccccc4nc13)NC(=O)CC2c1ccccc1F (stereo unspecified) -9.16%
Cc1cc(C)cc(OCC(=O)NCC(c2ccc(Cl)cc2)N2CCCCC2)c1 (stereo unspecified) -17.6%
COC(=O)c1ccc(NC(=O)CC2C(=O)N(c3ccc(Cl)cc3)C(=O)N2Cc2cccs2)cc1 (stereo unspecified) 0.334%
COc1ccccc1CCNC(=O)c1ccc2c(c1)c(C)c(C)n2C -9.58%
COc1ccc(NC(=O)CSc2ncc(-c3ccc(Cl)cc3)[nH]2)cc1OC -2.24%
COc1ccc(OC)c(N(CC(=O)NCc2ccccc2)S(=O)(=O)c2ccccc2)c1 4.7%
CCN(CC)S(=O)(=O)c1ccc2c(c1)N(CC(=O)Nc1c(C)cccc1C)C(=O)CO2 -4.6%
CCc1ccccc1NC(=O)Cn1nnc(C(=O)OC)c1C(=O)OC 1.19%
CCOC(=O)c1sc(N2C(=O)c3oc4cc(C)c(C)cc4c(=O)c3C2c2cccc(O)c2)nc1C (stereo unspecified) 24.6%
CCOC(=O)c1sc2ccccc2c1S(=O)(=O)Nc1ccc(N(C)C)cc1 -3.03%
Cc1cc(S(=O)(=O)Nc2cccc(C(=O)O)c2)c(C)c(S(=O)(=O)c2ccccc2)c1 -7.66%
COc1ccc(-c2nc(C)c(CCNC(=O)C(=O)Nc3cccc(F)c3)s2)cc1OC 28.4%
CC1CCN(c2nc3c(S(=O)(=O)c4ccccc4)nnn3c3ccsc23)CC1 1.89%
CCc1ccccc1NC(=O)c1cc(S(=O)(=O)N(CC)c2ccccc2)ccc1F -2.53%
O=C1NC(=O)C(=Cc2ccc3nccnc3c2)S1 -12.8% [at 23.2 µM]
COc1ccccc1NC(=O)CCCOc1cc(=O)n(C)c2ccccc12 -4.03%
CCc1ccccc1NC(=O)Nc1nnc(N2CCCC2)s1 -23%
Cc1ccc(C)c(Cn2c(=O)n(Cc3ccccc3)c(=O)c3c(C)c(C)sc32)c1 11%
CCOC(=O)CCn1nc(-c2ccc(C)cc2)c2ccccc2c1=O -7.13%
O=C(CC1N=C2c3ccccc3N=C(SCC(=O)Nc3cccc(C(F)(F)F)c3)N2C1=O)NCc1cccs1 (stereo unspecified) 1.65%
COc1ccc(CCNC(=O)c2nn(-c3ccc(C)cc3)c(=O)c3c2c2ccccc2n3C)cc1OC 15.4%
Cc1ccc(C)c(N2CCN(S(=O)(=O)c3ccc4oc(=O)c5ncn(C)c5c4c3)CC2)c1 4.87%
COc1cc(NC(=O)Cn2c(=O)n(Cc3ccccc3OC)c(=O)c3cccnc32)cc(OC)c1 -5.85%
Cc1ccc(C(=O)COC(=O)c2cc(-c3ccccc3)nc3ccccc23)cc1C -8.74%
COc1ccc(NC(=O)CCN2CCN(c3cccc(Cl)c3)CC2)cc1 -6.27%
CCCNC(=O)c1ccc2c(c1)N(Cc1cccc(C)c1)C(=O)c1ccccc1S2 -7.51%
Cc1ccc(S(=O)(=O)c2nnn3c2nc(NCc2ccc(F)cc2)c2sccc23)cc1 2.69%
CCc1ccc(NC(=O)CC2C(=O)N(c3cccc(OC)c3)C(=O)N2Cc2ccc(F)cc2)cc1 (stereo unspecified) 17.6%
Cc1nc2ccn(Cc3ccccc3)c(=O)c2cc1C(=O)N1CCN(c2ccc(F)cc2)CC1 64.8%
COc1ccccc1NC(=O)Cn1c(SCC(=O)Nc2ccc(F)cc2)nc2ccccc21 17.3%
NCCS(=O)(=O)O 1.45%
COc1cccc(CCNC(=O)c2c(O)nc3c(C)cccn3c2=O)c1 3.57%
CC(Sc1nnc2ccc3ccccc3n12)C(=O)Nc1ccc(Cl)cc1 (stereo unspecified) 5.55%
CCCc1cc(=O)[nH]c(Nc2cc(C)ccc2OC)n1 3.29%
Cc1cc(NC(=O)n2ncc3c(C)cccc32)ccc1Br 1.23%
COCCc1nn2c(=O)cc(COC(=O)C(c3ccccc3)c3ccccc3)nc2s1 8.96%
CCOC(=O)c1cnc2cc(-c3ccc(OCC)cc3)nn2c1-c1ccccc1 6.97%
COc1ccc(NC(=O)CSc2nccn2Cc2ccc3c(c2)OCO3)cc1 2.95%
O=C1CC(c2ccccc2)Sc2ccccc2N1Cc1ccc(F)cc1 (stereo unspecified) -3.06%
COc1ccc(C2=Nc3ccccc3NC(c3cccs3)=N2)cc1 -2.77%
CCOc1ccccc1NC(=O)c1c(NC(=O)COc2ccccc2)sc2c1CCCC2 10.5%
Cc1cc(C)c(NC(=O)CSc2ccc(-c3ccccn3)nn2)c(C)c1 0.725%
CN(C)CCNC(=O)CN1C(=O)COc2ccc(S(=O)(=O)N3CCCC3)cc21 46.5%
Cc1ccc(-n2c3c(cc(C(=O)Nc4ccccc4C(N)=O)c2=O)C(=O)CC(C)(C)C3)cc1 0.922%
CCCOc1ccc(NC(=O)CC2C(=O)N(c3ccccc3)C(=O)N2Cc2ccco2)cc1 (stereo unspecified) 2.15%
CCNS(=O)(=O)c1ccc(NC(=O)CSc2nc(-c3ccco3)cc(C(F)(F)F)n2)cc1 -1.52%
COc1cccc(NC(=O)CCC(=O)N2Cc3ccccc3Oc3ncccc32)c1 0.041%
Cc1ccc(-c2cc(C(=O)Nc3ccc(SC(F)F)cc3)no2)cc1F -10.7%
CCCOc1ccc(CNC(=O)CCCn2ncn3c(cc4sc(CC)cc43)c2=O)cc1 2.21%
CC(C)OC(=O)c1cccc(NC(=O)Cn2nnc3sc4c(c3c2=O)CCCC4)c1 4.15%
Cc1ccc(-n2cc(-c3ccccc3)c3c(N4CCCCC4)ncnc32)cc1 0.343%
Cc1cccc(Nc2nnc(-c3ccc(C)c(S(=O)(=O)N4CCCCC4)c3)c3ccccc23)c1 -9.36%
CCN(CC)c1ccc(NC(=O)c2cccn2-c2nnc(N3CCCCC3)s2)c(C)c1 21.9%
Cc1ccc(NC(=O)C(Cc2ccccc2)NS(=O)(=O)c2ccc3c(c2)c(=O)n(C)c(=O)n3C)c(C)c1 (stereo unspecified) 28.5%
Cc1c(Cl)cccc1-n1ncc(C(=O)N2CCN(c3ncccn3)CC2)c1C1CCN(C(=O)OC(C)(C)C)CC1 12%
CCc1cccc(NS(=O)(=O)c2c(C)[nH]c(=O)[nH]c2=O)c1 -4.83%
COc1ccc(CCNC(=O)CCc2c(C)nc3c4c(C)cc(C)nc4nn3c2C)cc1OC 3.55%
CC(=O)c1c(C)oc2ccc(N(C(=O)Oc3ccccc3)S(=O)(=O)c3ccc(Cl)cc3)cc12 10.7%
COc1cccc2c1cc1c(=O)n(CC(=O)N3CCN(c4cccc(C)c4C)CC3)nc(C)n12 10.5%
CCOc1ccccc1Nc1nc2ccccc2c2nncn12 7.72%
Cc1ccc(S(=O)(=O)Nc2cccc(-c3ccc(N4CCC(C)CC4)nn3)c2)s1 0.939%
COc1ccc(OCC(=O)Nc2ccc(-c3nc4cc(C)cc(C)c4o3)cc2)cc1 -9.01%
Fc1ccc(N2CCN(c3nc4ccccc4c4nc(-c5ccccc5)nn34)CC2)cc1 5.4%
COc1ccc2c(c1)cc(CNc1ccc(OC)c(OC)c1)c(=O)n2CC(=O)Nc1ccccc1C 7.13%
CC1CCN(S(=O)(=O)c2ccc3c(c2)CCN3C(=O)Nc2ccccc2Br)CC1 0.244%
COc1ccc2c(c1)c1c(c(=O)n(CCc3ccccc3)c(=O)n1Cc1cccc(Cl)c1)n2C 34.6%
Cc1ccc(NC(=O)C2CCCN(S(=O)(=O)c3ccc4[nH]c(=O)ccc4c3)C2)cc1Cl (stereo unspecified) -0.84%
COc1ccc(CC(=O)Nc2nc3c(s2)CC(C)CC3)cc1 (stereo unspecified) 0.458%
COc1cc(NC(=O)c2ccc(C)c(Cl)c2)ccc1NC(=O)c1cc2ccccc2o1 0.526%
CCCn1cc(S(=O)(=O)c2ccc(C)cc2)c(=O)c2cc(F)c(N3CCCC3)cc21 -4.75%
CCOc1ccccc1Nc1ncnc2c1cnn2-c1ccc(C)cc1 4.61%
CC(=O)Nc1cccc(NC(=O)c2cc3c(=O)n4cccc(C)c4nc3n2C)c1 -20.1%
O=C(NCc1cccc(Cl)c1)c1c2c(nc3ccccc13)C(=O)N(C1CCCCC1)C2 -4.41%
COc1nc(C)nc(Cl)c1NC1=NCCN1 -10.5%
Cc1ccc(CNC(=O)CSc2ncc3c(n2)-c2cc(Cl)ccc2N(C)S3(=O)=O)cc1 12.6%
COc1cccc(Cn2cc(C(=O)c3ccccc3)c(=O)c3cc4c(cc32)OCO4)c1 -7.86%
COc1cc(NC(=O)Cn2c(=O)n(CC3CCC(C(=O)NCCc4ccccc4)CC3)c(=O)c3ccccc32)cc(OC)c1 (stereo unspecified) 82.2%

outcome, inactive:
CCc1ccc(NCc2cc3cc4c(cc3n(CC(=O)Nc3ccc(Cl)cc3)c2=O)OCO4)cc1
COC(=O)c1cc(NC(=O)CCc2c(C)nc3c4c(C)cc(C)nc4nn3c2C)cc(C(=O)OC)c1
CCc1ccc(CN(Cc2ccco2)C(=O)c2ccccc2Cl)cc1
CCc1ccc(NC(=O)CC2C(=O)N(c3cccc(C)c3)C(=O)N2Cc2ccc(F)cc2)cc1 (stereo unspecified)
COc1ccc(C)cc1NC(=O)C(=O)NCC(c1cccnc1)N1CCc2ccccc21 (stereo unspecified)
COc1ccccc1CNC(=O)c1c[nH]c2ccc(S(=O)(=O)Nc3cc(C)cc(C)c3)cc2c1=O
Cc1ccc(CNC(=O)CSc2nc3ccsc3c(=O)n2Cc2ccccc2F)cc1
CCOc1ccc(CNC(=O)c2ccc3oc(=O)n(Cc4ccccc4)c3c2)cc1
Cc1ccc(CNC(=O)C2CCN(S(=O)(=O)N3CCCCC3)CC2)cc1
Cc1ccc(Cn2nnc3c(=O)[nH]c(C4CCN(C(=O)Cc5ccccc5F)CC4)nc32)cc1
CC1CN(C(=O)N2CCC(C(=O)NCCCc3ccccc3)CC2)c2cc(Cl)ccc2O1 (stereo unspecified)
Cc1c(C(=O)NCc2ccc(Cl)cc2)oc2ccc3c(c12)C(=O)CC(C)(C)O3
CCCCOc1ccc(CNC(=O)c2cccc(NC(=O)N3CCSc4ncccc43)c2)cc1
COc1cc2cc(CNc3ccccc3)c(=O)n(CC(=O)Nc3cccc(Cl)c3C)c2cc1OC
